# Sequences with one replicate were seen in a single cluster, so their values are uncertain.
# System: ATP
# Assay: switch fluorescence ratio, 500 uM ATP over buffer (Cy3 cluster intensity, sum of 5 cycles each) (fold (ratio)); higher = stronger signal-on switching upon ATP binding; sequences stand for … in TCGTCGGCAGCGTCAGATGTGTATAAGAGACAGTTTTTTTTTTTTTTTTTTTTTTTTT…TC
# Conditions: aptamer strand: ATP DNA aptamer (quencher-CACCTGGGGGAGTATTGCGGAGGAAGG + anchor), 100 nM annealed; ATP concentration: 500 uM; one replicate
# How it was run: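 Clusters with intensities outside 100-1000 RFU were excluded. The remaining Cy3-labelled switching-strand clusters on a modified Illumina MiSeq flow-cell had been annealed to 100 nM quencher-labelled ATP aptamer and imaged in selection buffer, then after 15 min with 500 uM ATP at 22 °C, for five cycles separated by NaOH stripping and re-annealing. The fluorescence ratio, averaged per switch-domain sequence, is each cluster's summed target-cycle Cy3 intensity over its summed buffer-cycle Cy3 intensity.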
# 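Further: ATP exposure 15 min at 22 °C before imaging.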
row,Sequence,switch fluorescence ratio
1,CGGCGAGCTT,1
2,CGGCGATTAG,0.978
3,CGGCGCAAAT,4.92
4,CGGCGCGTCC,1.03
5,CGGCGGCACA,1.05
6,CGGCGGTGGG,0.993
7,CGGCTAATA,1.11
8,CGGCTATGGA,1.02
9,CGGCTCTGCA,1.08
10,CGGCTGGGAC,1.08
11,CGGCTTATTG,0.985
12,CGGCTTGCTC,1.05
13,CGGGAAAACA,0.99
14,CGGGAAACTG,1.02
15,CGGGAAGGTG,1.46
16,CGGGACACTT,1
17,CGGGACATTA,0.987
18,CGGGAGACCA,0.969
19,CGGGAGGAAG,0.981
20,CGGGAGTACA,0.964
21,CGGGATATGT,0.985
22,CGGGCAAAAT,1.01
23,CGGGCAACGA,1.06
24,CGGGCACTGT,1.02
25,CGGGCAGTCG,1.02
26,CGGGCCGCCC,1.07

row,Sequence,switch fluorescence ratio
1,CGGGCCGGG,1.12
2,CGGGCGACTG,1.02
3,CGGGCGTGCT,0.978
4,CGGGCTGTCA,0.929
5,CGGGCTTAC,2.07
6,CGGGGCCGCC,1.02
7,CGGGGCCGGT,0.974
8,CGGGGGATA,0.942
9,CGGGGGGCAA,1.04
10,CGGGGTATAC,1.16
11,CGGGGTCTG,0.981
12,CGGGGTGATC,1.01
13,CGGGGTTG,0.938
14,CGGGTAAAAA,0.995
15,CGGGTAAAAT,0.989
16,CGGGTAGCGG,0.993
17,CGGGTATATA,1.03
18,CGGGTCGTCA,1.05
19,CGGGTGGGTT,0.967
20,CGGGTTCCCA,0.954
21,CGGTAAAGTA,0.966
22,CGGTAACCGA,0.999
23,CGGTAATCTC,1.21
24,CGGTAATTTA,1.01
25,CGGTACACAG,0.991
26,CGGTACGCAC,1.74

row,Sequence,switch fluorescence ratio
1,CGGTACGTAC,1.37
2,CGGTACTTGA,1.01
3,CGGTAGATTT,1.01
4,CGGTAGGCAG,0.969
5,CGGTAGTAGG,0.988
6,CGGTATACC,0.973
7,CGGTCACAAG,1.01
8,CGGTCACAGG,1.44
9,CGGTCGGTCA,0.993
10,CGGTCGTCTT,1.01
11,CGGTCGTGAA,0.952
12,CGGTCTAGGA,0.938
13,CGGTCTGTCT,1.03
14,CGGTCTTATT,0.97
15,CGGTCTTTTG,0.997
16,CGGTGAACC,1
17,CGGTGATATA,0.986
18,CGGTGCACGT,0.956
19,CGGTGCCGCC,0.946
20,CGGTGGGGC,1.03
21,CGGTTACAGT,0.979
22,CGGTTATAT,1.04
23,CGGTTCATG,0.977
24,CGGTTGAAGC,1.79
25,CGGTTGAGAC,1.07
26,CGGTTGCGTC,1.02

row,Sequence,switch fluorescence ratio
1,CGGTTGTACG,0.995
2,CGGTTGTGAT,0.998
3,CGGTTTAAAT,0.995
4,CGGTTTCCT,1.02
5,CGGTTTCGTT,1.02
6,CGGTTTCTG,0.991
7,CGTAA,1.05
8,CGTAAAAGA,1.01
9,CGTAAAATTG,1.01
10,CGTAAACTGT,0.977
11,CGTAAAGTCC,1
12,CGTAACAAGG,1.01
13,CGTAACGAAT,1.01
14,CGTAATAGCC,1.2
15,CGTAATAGGC,1.45
16,CGTAATGGGC,1.05
17,CGTACATCCT,1.03
18,CGTACCAACG,1.06
19,CGTACCAAGA,1.02
20,CGTACCTCAC,1.5
21,CGTACGATTG,1.03
22,CGTACGGCTA,1.08
23,CGTACTCCGA,1.25
24,CGTACTGCAG,1.16
25,CGTAGAACAA,1.05
26,CGTAGATAAC,1.04

row,Sequence,switch fluorescence ratio
1,CGTAGCCCCC,1.87
2,CGTAGGACCT,1
3,CGTAGGACTC,1.07
4,CGTAGGAGCC,0.962
5,CGTAGGTTGC,1
6,CGTAGTGGAC,2.27
7,CGTAGTGGGC,1.07
8,CGTATAATAC,2.39
9,CGTATAGTTC,0.943
10,CGTATCCGAT,1.02
11,CGTATCTGTT,0.986
12,CGTATGGAAG,0.995
13,CGTATGGTTT,0.965
14,CGTATGTAGG,0.98
15,CGTATGTCAC,0.986
16,CGTCAATAAT,1.93
17,CGTCAATGTT,0.972
18,CGTCACACCA,1.12
19,CGTCACATTT,0.959
20,CGTCAGGGTA,1.03
21,CGTCCAGCGA,2.15
22,CGTCCCCATT,1.22
23,CGTCCGCGTA,4.53
24,CGTCCTTGAA,0.988
25,CGTCCTTT,0.958
26,CGTCGAGTAA,1.07

row,Sequence,switch fluorescence ratio
1,CGTCGCAGTC,1.6
2,CGTCGCGTAC,3.26
3,CGTCGGCACA,1.03
4,CGTCGTCATT,1.01
5,CGTCGTGAAG,0.974
6,CGTCTAATCT,1.05
7,CGTCTACTAT,0.995
8,CGTCTAGAGC,0.973
9,CGTCTCCTG,0.967
10,CGTCTGAACG,0.979
11,CGTCTGAGTC,0.998
12,CGTCTGTTAC,2.55
13,CGTCTTAAAT,1.01
14,CGTCTTACTG,1.05
15,CGTCTTGCAG,0.99
16,CGTCTTTCGC,1.05
17,CGTGACGGTC,1
18,CGTGACTAGC,1.07
19,CGTGAGGCTT,0.998
20,CGTGAGTGTT,0.967
21,CGTGATATGG,1.02
22,CGTGATTATC,1.06
23,CGTGCACCT,1.05
24,CGTGCAGTCC,1.07
25,CGTGCATAAG,0.988
26,CGTGCGTTGA,0.998

row,Sequence,switch fluorescence ratio
1,CGTGCTGATA,0.998
2,CGTGGCACGG,0.988
3,CGTGGCCTTG,0.925
4,CGTGGCGGAC,1.07
5,CGTGGTAGGT,1.04
6,CGTGGTGTGG,1.01
7,CGTGTACGGC,1.03
8,CGTGTATAGA,1.03
9,CGTGTCTCGC,0.972
10,CGTGTTGACA,0.969
11,CGTGTTGTGC,1.03
12,CGTGTTTCGA,1.04
13,CGTTAAAGCG,0.933
14,CGTTACAAGT,0.983
15,CGTTACATTT,0.959
16,CGTTACCAGG,2.06
17,CGTTAGACGA,1
18,CGTTAGGGTG,1.03
19,CGTTAGGTAA,0.984
20,CGTTAGGTCC,1.04
21,CGTTATTACC,1.04
22,CGTTATTGCG,1.02
23,CGTTCATCGG,0.972
24,CGTTCCGTGG,1.02
25,CGTTCGGGGA,0.995
26,CGTTCGTTCA,1.02

row,Sequence,switch fluorescence ratio
1,CGTTGCGATC,1.4
2,CGTTGCGCGA,1.07
3,CGTTGCGGGT,0.999
4,CGTTGGGAAA,0.962
5,CGTTGGGCGT,0.976
6,CGTTGGGGCC,1.03
7,CGTTGGTAGG,1.17
8,CGTTGTCGAT,1.03
9,CGTTTATAG,1.03
10,CGTTTATCTT,1.03
11,CGTTTCATAA,0.978
12,CGTTTCCAGA,0.982
13,CGTTTGATAG,0.99
14,CGTTTGATCG,1.02
15,CGTTTGCATA,1.2
16,CGTTTTGA,1.01
17,CGTTTTGCTT,0.991
18,CTAAAGGTTG,0.972
19,CTAAATCGGG,0.961
